Assay results published in the supplement of paper PMC8821664.
Structures can show the parent of a compound that is named as a salt. The list shows a part of the results. Most values come without repeats; read them as rough.

Each compound was assayed on Beas-2B AQP5-HiBiT reporter cells (assay: AQP5-HiBiT luminescence relative to vehicle (ratio to vehicle); higher = higher AQP5-HiBiT protein abundance). Details: 10 µM; 18 h.
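Further: monoclonal Beas-2B line stably carrying CMV promoter-driven AQP5-HiBiT, 5,000 cells per well in 384-well plates, lytic HiBiT plus LgBiT NanoLuc luminescence, FDA-approved drug library screen.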

With `C[C@]12CCC(=O)C=C1CC[C@@H]1[C@@H]2CC[C@@]2(C)[C@H]1CC[C@]2(C)O` [17-Methyltestosterone] as the compound, how does the AQP5-HiBiT luminescence read?
Its AQP5-HiBiT luminescence is 1.01.

`N.N.[Cl][Pt][Cl]` [Cisplatin] was tested. Which AQP5-HiBiT luminescence did it give?
Its AQP5-HiBiT luminescence is 1.23.

How did the AQP5-HiBiT luminescence turn out when `Oc1cc(Cl)ccc1Oc1ccc(Cl)cc1Cl` [Triclosan] was run?
The AQP5-HiBiT luminescence was 0.599.

For `C=CCN1CC[C@]23c4c5ccc(O)c4O[C@H]2C(=O)CC[C@@]3(O)[C@H]1C5` [Naloxone hydrochloride], which AQP5-HiBiT luminescence is on record?
The AQP5-HiBiT luminescence was 1.01.

How did the AQP5-HiBiT luminescence turn out when `CN1CCN(C(=O)OC2c3nccnc3C(=O)N2c2ccc(Cl)cn2)CC1` (configuration not stated) [Zopiclone] was run?
Its AQP5-HiBiT luminescence is 0.908.

For `CC1(C)C(C=C(Cl)Cl)C1C(=O)OCc1cccc(Oc2ccccc2)c1` (configuration not stated) [Permethrin], which AQP5-HiBiT luminescence is on record?
The AQP5-HiBiT luminescence was 1.01.

`CCCC(C)(COC(N)=O)COC(=O)NC(C)C` (configuration not stated) [Carisoprodol] was tested. Which AQP5-HiBiT luminescence did it give?
The AQP5-HiBiT luminescence was 0.949.

How did the AQP5-HiBiT luminescence turn out when `CC(C)N(CCC(C(N)=O)(c1ccccc1)c1ccccn1)C(C)C` (configuration not stated) [Disopyramide] was run?
The AQP5-HiBiT luminescence was 1.07.

`COc1ccc(CN(C(=O)[C@@H](N)Cc2c(C)cc(C(N)=O)cc2C)[C@@H](C)c2ncc(-c3ccccc3)[nH]2)cc1C(=O)O` [Eluxadoline] was tested. Which AQP5-HiBiT luminescence did it give?
The AQP5-HiBiT luminescence was 0.858.

`CCOC(=O)CC(SP(=S)(OC)OC)C(=O)OCC` (configuration not stated) [Malathion] was tested. Which AQP5-HiBiT luminescence did it give?
Its AQP5-HiBiT luminescence is 0.736.

Which AQP5-HiBiT luminescence does the source give for `O=[N+]([O-])O[C@H]1CO[C@H]2[C@@H]1OC[C@H]2O[N+](=O)[O-]` [Isosorbide dinitrate] here?
The AQP5-HiBiT luminescence was 1.55.

Which AQP5-HiBiT luminescence does the source give for `C[N+](C)(C)CCCCCCCCCC[N+](C)(C)C` [Decamethonium bromide] here?
The AQP5-HiBiT luminescence was 0.923.

Which AQP5-HiBiT luminescence does the source give for `N#Cc1ccccc1-c1cc(-c2ccccn2)cn(-c2ccccc2)c1=O` [PeraMpanel] here?
Its AQP5-HiBiT luminescence is 0.478.

Which AQP5-HiBiT luminescence does the source give for `Cc1ccc(-n2nccn2)c(C(=O)N2CCN(c3nc4cc(Cl)ccc4o3)CC[C@H]2C)c1` [MK-4305 (Suvorexant)] here?
The AQP5-HiBiT luminescence was 0.627.

How did the AQP5-HiBiT luminescence turn out when `N[C@@H](Cc1ccc(N(CCCl)CCCl)cc1)C(=O)O` [Melphalan] was run?
The AQP5-HiBiT luminescence was 0.651.

`O=P1(NCCCl)OCCCN1CCCl` (configuration not stated) [Ifosfamide] was tested. Which AQP5-HiBiT luminescence did it give?
Its AQP5-HiBiT luminescence is 1.53.

For `CN1[C@@H]2C[C@@H](OC(=O)[C@H](CO)c3ccccc3)C[C@H]1[C@@H]1O[C@@H]12` [Scopolamine HBr trihydrate], which AQP5-HiBiT luminescence is on record?
The AQP5-HiBiT luminescence was 0.921.

How did the AQP5-HiBiT luminescence turn out when `NC(=O)C[S@@+]([O-])C(c1ccccc1)c1ccccc1` [Armodafinil] was run?
Its AQP5-HiBiT luminescence is 1.08.

For `CC(NC(C)(C)C)C(=O)c1cccc(Cl)c1` (configuration not stated) [Bupropion hydrochloride], which AQP5-HiBiT luminescence is on record?
The AQP5-HiBiT luminescence was 1.2.

For `C[C@@H]1[C@H](O)[C@@H](C)/C=C/C=C/CC/C=C/C=C/C=C/C=C/[C@H](O[C@H]2O[C@@H](C)[C@H](O)[C@@H](N)[C@H]2O)C[C@@H]2O[C@](O)(C[C@@H](O)[C@H](O)CC[C@@H](O)C[C@@H](O)C[C@@H](O)CC(=O)O[C@H]1C)C[C@H](O)[C@H]2C(=O)O` [Nystatin (Fungicidin)], which AQP5-HiBiT luminescence is on record?
The AQP5-HiBiT luminescence was 0.845.

For `O=C1CC[C@@]2(O)[C@H]3Cc4ccc(O)c5c4[C@@]2(CCN3CC2CC2)[C@H]1O5` [Naltrexone hydrochloride], which AQP5-HiBiT luminescence is on record?
Its AQP5-HiBiT luminescence is 1.06.

Which AQP5-HiBiT luminescence does the source give for `N[C@@H]1C[C@H]1c1ccccc1` [Tranylcypromine (2-PCPA) hydrochloride] here?
Its AQP5-HiBiT luminescence is 0.872.

Which AQP5-HiBiT luminescence does the source give for `CCCCCCCCCC(=O)O[C@H]1CC[C@H]2[C@@H]3CCC4=CC(=O)CC[C@@H]4[C@H]3CC[C@]12C` [Nandrolone decanoate] here?
The AQP5-HiBiT luminescence was 1.04.

`CN(C)C(=O)Oc1cccc([N+](C)(C)C)c1` [Neostigmine bromide] was tested. Which AQP5-HiBiT luminescence did it give?
The AQP5-HiBiT luminescence was 1.18.

With `CC[C@@H](C(N)=O)N1CCCC1=O` [Levetiracetam] as the compound, how does the AQP5-HiBiT luminescence read?
Its AQP5-HiBiT luminescence is 0.95.

With `Nc1ccncc1` [4-Aminopyridine] as the compound, how does the AQP5-HiBiT luminescence read?
Its AQP5-HiBiT luminescence is 0.949.

`CCOC(=O)c1cncn1[C@H](C)c1ccccc1` [Etomidate] was tested. Which AQP5-HiBiT luminescence did it give?
The AQP5-HiBiT luminescence was 1.03.

`NCC(CC(=O)O)c1ccc(Cl)cc1` (configuration not stated) [Baclofen] was tested. Which AQP5-HiBiT luminescence did it give?
Its AQP5-HiBiT luminescence is 0.83.

Which AQP5-HiBiT luminescence does the source give for `C[N+]1(C)[C@@H]2C[C@@H](OC(=O)[C@H](CO)c3ccccc3)C[C@H]1[C@@H]1O[C@@H]12` [Methscopolamine] here?
Its AQP5-HiBiT luminescence is 0.658.

With `C[C@H]1CNCCc2ccc(Cl)cc21` [Lorcaserin] as the compound, how does the AQP5-HiBiT luminescence read?
The AQP5-HiBiT luminescence was 0.944.

How did the AQP5-HiBiT luminescence turn out when `C[C@]12COC(=O)C[C@@H]1CC[C@@H]1[C@@H]2CC[C@@]2(C)[C@H]1CC[C@]2(C)O` [Oxandrolone] was run?
Its AQP5-HiBiT luminescence is 0.619.

How did the AQP5-HiBiT luminescence turn out when `COC[C@@H](NC(C)=O)C(=O)NCc1ccccc1` [Lacosamide] was run?
Its AQP5-HiBiT luminescence is 0.581.

With `CN1[C@@H]2C[C@@H](OC(=O)[C@H](CO)c3ccccc3)C[C@H]1[C@@H]1O[C@@H]12` [Scopolamine HBr] as the compound, how does the AQP5-HiBiT luminescence read?
The AQP5-HiBiT luminescence was 0.949.

`NCC1(CC(=O)O)CCCCC1` [Gabapentin] was tested. Which AQP5-HiBiT luminescence did it give?
Its AQP5-HiBiT luminescence is 1.06.

How did the AQP5-HiBiT luminescence turn out when `O=c1[nH]c2ccccc2n1C1CCN(CCCC(c2ccc(F)cc2)c2ccc(F)cc2)CC1` [Pimozide] was run?
Its AQP5-HiBiT luminescence is 1.32.

Which AQP5-HiBiT luminescence does the source give for `COc1cc([C@@H]2c3cc4c(cc3[C@H](O)[C@H]3COC(=O)[C@H]23)OCO4)cc(OC)c1OC` [Podophyllotoxin] here?
Its AQP5-HiBiT luminescence is 2.88.

`CCCCCCC(=O)O[C@H]1CC[C@H]2[C@@H]3CCC4=CC(=O)CC[C@]4(C)[C@H]3CC[C@]12C` [Testosterone Enanthate] was tested. Which AQP5-HiBiT luminescence did it give?
The AQP5-HiBiT luminescence was 0.693.
